Counter-ions that a name gives are not always drawn. Like-named read-outs stand apart in the source and are kept apart here. At least one structure is not confirmed: it was looked up by name or label, or the drawing left a doubt.
Assays:
Total rat MAO = Total rat MAO activity (rat liver mitochondrial preparate, tyramine substrate); assay type: biochemical; conditions: rat liver mitochondria, 0.5 mM tyramine, pH 7.6, 37° C., read-out: Total MAO inhibitory activity IC50
[1] = system: carrageenan-evoked paw oedema; assay: Inhibition of carrageenan-evoked rat paw oedema; assay type: in vivo; conditions: female Sprague Dawley rats, 100 mg kg-1 intraperitoneally 15 min prior to carrageenan
[2] = system: collagen-induced arthritis; assay: Inhibition of collagen-induced arthritis in mouse; assay type: in vivo; conditions: DBA/1 mice
[3] = 10 mg kg-1 twice daily i.p., day 23 to 37, p<0.05

Compound `CN(N)[C@H]1Cc2ccccc2[C@@H]1O` [Compound 9, (1S,2S)-2-(1-methylhydrazino)-1-indanol succinate] has an IC50 (Total rat MAO; succinate) of 16 µM.
In the case of `CCN(N)[C@@H]1Cc2ccccc2[C@H]1O` (relative stereo) [Compound 2, (1R*,2R*)-2-(1-Ethylhydrazino)-1-indanol hydrogenmaleate], the IC50 (Total rat MAO) is reported as 19 µM.
For `CN(N)[C@H]1Cc2ccccc2[C@@H]1O` [Compound 11, (1S,2S)-2-(1-methylhydrazino)-1-indanol (S,S)-tartrate], the IC50 (Total rat MAO) was 22 µM.
For `CN(N)[C@@H]1Cc2ccccc2[C@H]1O` [Compound 14, (1R,2R)-2-(1-methylhydrazino)-1-indanol (R,R)-tartrate], the IC50 (Total rat MAO) was 20 µM.
`CN(N)[C@@H]1Cc2ccccc2[C@H]1O` [Compound 10, (1R,2R)-2-(1-methylhydrazino)-1-indanol succinate] gave an IC50 (Total rat MAO; succinate) of 15 µM.
`CO[C@H]1c2ccccc2C[C@@H]1N(C)N` [Compound 19, (1S,2S)-2-(1-methylhydrazino)-1-methoxyindane Hydrogenmaleate] gave an IC50 (Total rat MAO) of 14 µM.
`CN(N)[C@@H]1Cc2ccccc2[C@H]1O` [Compound 6, (1R,2R)-2-(1-methylhydrazino)-1-indanol hydrogenmaleate] was tested, and the IC50 (Total rat MAO) was 19 µM.
Work on `CN(N)[C@@H]1Cc2ccccc2[C@H]1O` [Compound 8, (1R,2R)-2-(1-methylhydrazino)-1-indanol fumarate] yielded an IC50 (Total rat MAO; fumarate) of 12 µM.
Compound `CN(N)[C@H]1Cc2ccccc2[C@@H]1O` [Compound 1, (1S,2S)-2-(1-methylhydrazino)-1-indanol hydrogenmaleate] has an IC50 (Total rat MAO) of 22 µM.
For `CN(N)[C@@H]1Cc2ccccc2[C@H]1O` [Compound 12, (1R,2R)-2-(1-methylhydrazino)-1-indanol (S,S)-tartrate], the IC50 (Total rat MAO) was 20 µM.
For `CN(N)[C@H]1Cc2ccccc2[C@@H]1O` [Compound 7, (1S,2S)-2-(1-methylhydrazino)-1-indanol fumarate], the IC50 (Total rat MAO; fumarate) was 13 µM.
In the case of `CN(N)[C@@H]1Cc2ccccc2[C@H]1O` (relative stereo) [Compound 4, (1R,*2R*)-2-(1-Methylhydrazino)-1-indanol hydrogenmaleate], the “paw swelling at 60 min” value ([1]; 60 min, p<0.05) is reported as “clearly and significantly reduced”, the “paw oedema at 180 min” value ([1]; 180 min, p<0.001) is reported as “nearly totally inhibited” and the IC50 (Total rat MAO) is reported as 21 µM. The cumulative arthritis score [2, 3] was “reduction”, the final arthritis score [2, 3] was “reduction” and the cumulative arthritis score ([2]; 50 mg kg-1 twice daily i.p., day 23 to 37, p<0.01) was “reduction”. The final arthritis score ([2]; 50 mg kg-1 twice daily i.p., day 23 to 37, p<0.05) was “reduction” and the “lag time preceding the first signs of arthritis” value ([2]; 10 or 50 mg kg-1 twice daily i.p., day 23 to 37) was “no statistically significant effect”.
Work on `CN(N)[C@H]1Cc2ccccc2[C@@H]1O` [Compound 13, (1S,2S)2-(1-methylhydrazino)-1-indanol (R,R)-tartrate] yielded an IC50 (Total rat MAO) of 19 µM.
